# Assay results reported in the supplement of paper PMC8728848.
# The list shows a part of the results.
# B1: GS13846A-bth-444-19-444 (Bacteroides thetaiotaomicron) (protein)
# chain: SCENEFDVSDKADSLISVTVNTLNNQAAYNVGETAQAELWIQRGGLKDASGKVQFVVDPLLLDSLNQEDKTNYELLPENCYEMTNTEFTVDKNELCGYITYHPEKILALSAYNETKYVLPLRLISNDLAINPARNTSFLAFTILEPIVHISNAGVYNINPDLTSTMDIQIGVPFTNKWDILCNLTEDLSLIDEYNQINKVNFTLLPENAYTAPESVTLQEGVSQITASYQLKNNLVPGNYILPIKIGSITASQGGVPNNSLVIDEESNVLFCIVKEGNKINKSGWEVIECSSEHAGNEATYMIDDNESTYWHCKFKNEAGSSVPPFHFIIDMKKEITIAQIDLLNRGDGAANNIKWVEFYASNNNSEWDKIGAGDFNDEGTRATFRYYVKSTKARYLKLIIPEGYGNNCPPAAIRELTVYGLEGNN
# Assays:
# Experiment in all cases: glycan array binding signal (z-score within array); higher = stronger binding
# Details in all cases: glycan notation: IUPAC condensed, linker removed
# [1] = biological target: Fuc(a1-2)[GalNAc(a1-3)]Gal(b1-3)GlcNAc(b1-6)GalNAc
# Outline: (§1)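 The Consortium for Functional Glycomics database supplied 3228 glycan arrays, of which those lacking an available protein sequence were dropped. The binding signal, a within-array Z-score, was averaged across arrays of the same protein sequence and across linkers. Negative scores can be read as non-binding.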
# [2] = biological target: Fuc(a1-2)[GalNAc(a1-3)]Gal(b1-4)Glc
# Outline: as §1
# [3] = biological target: Fuc(a1-2)[GalNAc(a1-3)]Gal(b1-4)GlcNAc
# Outline: as §1
# [4] = biological target: Fuc(a1-2)[GalNAc(a1-3)]Gal(b1-4)GlcNAc(b1-2)Man
# Outline: as §1
# [5] = biological target: Fuc(a1-2)[GalNAc(a1-3)]Gal(b1-4)GlcNAc(b1-2)Man(a1-3)[Fuc(a1-2)[GalNAc(a1-3)]Gal(b1-4)GlcNAc(b1-2)Man(a1-6)]Man(b1-4)GlcNAc(b1-4)GlcNAc
# Outline: as §1
# [6] = biological target: Fuc(a1-2)[GalNAc(a1-3)]Gal(b1-4)GlcNAc(b1-2)Man(a1-3)[Fuc(a1-2)[GalNAc(a1-3)]Gal(b1-4)GlcNAc(b1-2)Man(a1-6)]Man(b1-4)GlcNAc(b1-4)[Fuc(a1-6)]GlcNAc
# Outline: as §1
# [7] = biological target: Fuc(a1-2)[GalNAc(a1-3)]Gal(b1-4)GlcNAc(b1-3)Gal(b1-4)GlcNAc
# Outline: as §1
# [8] = biological target: Fuc(a1-2)[GalNAc(a1-3)]Gal(b1-4)GlcNAc(b1-3)Gal(b1-4)GlcNAc(b1-3)Gal(b1-4)GlcNAc
# Outline: as §1
# [9] = biological target: Fuc(a1-2)[GalNAc(a1-3)]Gal(b1-4)GlcNAc(b1-3)GalNAc
# Outline: as §1
# [10] = biological target: Fuc(a1-2)[GalNAc(a1-3)]Gal(b1-4)GlcNAc(b1-3)[Fuc(a1-2)[GalNAc(a1-3)]Gal(b1-4)GlcNAc(b1-6)]GalNAc
# Outline: as §1
# [11] = biological target: Fuc(a1-2)[GalNAc(a1-3)]Gal(b1-4)GlcNAc(b1-6)GalNAc
# Outline: as §1
# [12] = biological target: Fuc(a1-2)[GalNAc(a1-3)]Gal(b1-4)[Fuc(a1-3)]GlcNAc
# Outline: as §1
# [13] = biological target: Fuc(a1-2)[GalNAc(a1-3)]Gal(b1-4)[Fuc(a1-3)]GlcNAc(b1-3)GalNAc
# Outline: as §1
# [14] = biological target: Fuc(a1-2)[GalNAc(a1-4)]Gal(b1-4)GlcNAc
# Outline: as §1
# [15] = biological target: Fuc(a1-2)[GalNAc(b1-3)]Gal
# Outline: as §1
# [16] = biological target: Fuc(a1-3)GlcNAc
# Outline: as §1
# [17] = biological target: Fuc(a1-3)[Gal(b1-4)]Glc6S
# Outline: as §1
# [18] = biological target: Fuc(a1-3)[Gal(b1-4)]GlcNAc
# Outline: as §1
# [19] = biological target: Fuc(a1-3)[Gal(b1-4)]GlcNAc(b1-2)Man
# Outline: as §1
# [20] = biological target: Fuc(a1-3)[Gal(b1-4)]GlcNAc(b1-2)Man(a1-3)[Fuc(a1-3)[Gal(b1-4)]GlcNAc(b1-2)Man(a1-6)]Man(b1-4)GlcNAc(b1-4)GlcNAc
# Outline: as §1
# [21] = biological target: Fuc(a1-3)[Gal(b1-4)]GlcNAc(b1-2)Man(a1-3)[Fuc(a1-3)[Gal(b1-4)]GlcNAc(b1-2)Man(a1-6)]Man(b1-4)GlcNAc(b1-4)[Fuc(a1-6)]GlcNAc
# Outline: as §1
# [22] = biological target: Fuc(a1-3)[Gal(b1-4)]GlcNAc(b1-3)Gal(b1-3)[Fuc(a1-4)]GlcNAc
# Outline: as §1
# [23] = biological target: Fuc(a1-3)[Gal(b1-4)]GlcNAc(b1-3)Gal(b1-4)[Fuc(a1-3)]GlcNAc
# Outline: as §1
# [24] = biological target: Fuc(a1-3)[Gal(b1-4)]GlcNAc(b1-3)Gal(b1-4)[Fuc(a1-3)]GlcNAc(b1-3)Gal(b1-4)[Fuc(a1-3)]GlcNAc
# Outline: as §1
# [25] = biological target: Fuc(a1-3)[Gal(b1-4)]GlcNAc(b1-3)GalNAc
# Outline: as §1
# [26] = biological target: Fuc(a1-3)[Gal(b1-4)]GlcNAc(b1-6)GalNAc
# Outline: as §1
# [27] = biological target: Fuc(a1-3)[Gal(b1-4)]GlcNAc(b1-6)[Gal(b1-3)GlcNAc(b1-3)]Gal(b1-4)Glc
# Outline: as §1
# [28] = biological target: Fuc(a1-3)[Gal(b1-4)]GlcNAc6S
# Outline: as §1
# [29] = biological target: Fuc(a1-3)[Gal3S(b1-4)]Glc
# Outline: as §1
# [30] = biological target: Fuc(a1-3)[Gal3S(b1-4)]GlcNAc
# Outline: as §1
# [31] = biological target: Fuc(a1-3)[Gal3S(b1-4)]GlcNAc6S
# Outline: as §1
# [32] = biological target: Fuc(a1-3)[GalNAc(b1-4)]GlcNAc
# Outline: as §1
# [33] = biological target: Fuc(a1-3)[GalNAc(b1-4)]GlcNAc6S
# Outline: as §1
# [34] = biological target: Fuc(a1-4)GlcNAc
# Outline: as §1
# [35] = biological target: Fuc(b1-3)GlcNAc
# Outline: as §1
# [36] = biological target: Gal(a1-2)Gal
# Outline: as §1
# [37] = biological target: Gal(a1-3)Gal
# Outline: as §1
# [38] = biological target: Gal(a1-3)Gal(b1-3)GlcNAc
# Outline: as §1
# [39] = biological target: Gal(a1-3)Gal(b1-3)GlcNAc(b1-2)Man
# Outline: as §1
# [40] = biological target: Gal(a1-3)Gal(b1-3)GlcNAc(b1-2)Man(a1-3)[Gal(a1-3)Gal(b1-3)GlcNAc(b1-2)Man(a1-6)]Man(b1-4)GlcNAc(b1-4)GlcNAc
# Outline: as §1
# [41] = biological target: Gal(a1-3)Gal(b1-3)GlcNAc(b1-3)GalNAc
# Outline: as §1
# [42] = biological target: Gal(a1-3)Gal(b1-3)GlcNAc(b1-6)GalNAc
# Outline: as §1
# [43] = biological target: Gal(a1-3)Gal(b1-3)[Fuc(a1-4)]GlcNAc(b1-2)Man(a1-3)[Gal(a1-3)Gal(b1-3)[Fuc(a1-4)]GlcNAc(b1-2)Man(a1-6)]Man(b1-4)GlcNAc(b1-4)GlcNAc
# Outline: as §1
# [44] = biological target: Gal(a1-3)Gal(b1-4)Glc
# Outline: as §1
# [45] = biological target: Gal(a1-3)Gal(b1-4)GlcNAc
# Outline: as §1
binder,measurement,setting,value
B1,glycan array binding signal (z-score),[1],-0.21
same,glycan array binding signal (z-score),[2],-0.135
same,glycan array binding signal (z-score),[3],-0.323
same,glycan array binding signal (z-score),[4],-0.352
same,glycan array binding signal (z-score),[5],0.446
same,glycan array binding signal (z-score),[6],-0.119
same,glycan array binding signal (z-score),[7],-0.207
same,glycan array binding signal (z-score),[8],-0.249
same,glycan array binding signal (z-score),[9],-0.26
same,glycan array binding signal (z-score),[10],-0.096
same,glycan array binding signal (z-score),[11],-0.248
same,glycan array binding signal (z-score),[12],-0.026
same,glycan array binding signal (z-score),[13],0.146
same,glycan array binding signal (z-score),[14],-0.246
same,glycan array binding signal (z-score),[15],-0.106
same,glycan array binding signal (z-score),[16],0.116
same,glycan array binding signal (z-score),[17],0.033
same,glycan array binding signal (z-score),[18],-0.105
same,glycan array binding signal (z-score),[19],-0.122
same,glycan array binding signal (z-score),[20],-0.273
same,glycan array binding signal (z-score),[21],0.36
same,glycan array binding signal (z-score),[22],-0.295
same,glycan array binding signal (z-score),[23],-0.137
same,glycan array binding signal (z-score),[24],-0.04
same,glycan array binding signal (z-score),[25],-0.339
same,glycan array binding signal (z-score),[26],-0.335
same,glycan array binding signal (z-score),[27],-0.354
same,glycan array binding signal (z-score),[28],-0.344
same,glycan array binding signal (z-score),[29],-0.17
same,glycan array binding signal (z-score),[30],-0.257
same,glycan array binding signal (z-score),[31],-0.237
same,glycan array binding signal (z-score),[32],-0.275
same,glycan array binding signal (z-score),[33],0.175
same,glycan array binding signal (z-score),[34],-0.35
same,glycan array binding signal (z-score),[35],-0.384
same,glycan array binding signal (z-score),[36],-0.055
same,glycan array binding signal (z-score),[37],-0.336
same,glycan array binding signal (z-score),[38],-0.266
same,glycan array binding signal (z-score),[39],-0.049
same,glycan array binding signal (z-score),[40],0.196
same,glycan array binding signal (z-score),[41],-0.05
same,glycan array binding signal (z-score),[42],-0.015
same,glycan array binding signal (z-score),[43],2.08
same,glycan array binding signal (z-score),[44],-0.254
same,glycan array binding signal (z-score),[45],-0.255
